Test results reported in PubChem BioAssay AID1508642 (National Center for Advancing Translational Sciences (NCATS), 2021).
Among all 43,000 compounds or so, about 200 (0.47%) were called active. Not shown: some 12% with an inconclusive outcome. Calls come from the whole dose curve; as a rule, active = well fitted cell-killing curve with a large enough effect; inconclusive = small, poorly fitted or top-dose-only effect, or effect the other way; inactive = flat fitted curve, though single readings scatter. The list shows a part of the results.

assay: Cell viability qHTS assay in S16 Pmp22-F2sN cells; settings: S16 Pmp22-F2sN Schwann cells (luciferase reporters placed in the Pmp22 gene) viability, CellTiter-Glo, 24 h; series mostly up to 57.5 µM; activity change, negative = cytotoxicity: at the top concentration; note: nearly all actives have a fitted effect of over 65% in size
Outline: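 S16 Schwann cells carrying the Pmp22-F2sN reporter, seeded in 1536-well format, were exposed to library compounds for 24 h at 37C. Viability was read as CellTiter-Glo luminescence after 15 min at room temperature.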
% is set by controls: 0 for no effect and ±100 for the full control effect.

SMILES	activity change, negative = cytotoxicity
O=C(Nc1ccc(Br)cc1F)c1ccc2nc(CCc3ccccc3)oc2c1	inactive: -14.3%
CCN(CC)CCNC(=O)c1sc2nc(C)cc(C)c2c1-n1cccc1	inactive: 13.6%
COc1ccc(-n2c(Cc3ccccc3)nnc2SCc2nc(-c3ccccc3C)no2)cc1	inactive: -3.93%
Cc1ccc2onc(CNC(=O)N(C)Cc3ccccc3)c2c1	inactive: 8.37%
COc1ccc(NC(=O)Cn2ccn(Cc3ccccc3)c(=O)c2=O)cc1Cl	inactive: -0.149%
CCc1ccccc1NC(=O)Cn1c(C(=O)OC)cc2oc(C)cc21	inactive: -0.0664%
CCOC(=O)c1ccc(NC(=O)c2cccc3c(=O)c4c([nH]c23)CCCC4)cc1	inactive: 7.4%
COCCCNC(=O)c1sc2nc(C)c(C(=O)Nc3ccc(Cl)cc3)c(-c3ccc(Br)cc3)c2c1N	inactive: -1.01%
CC1N=C2c3ccccc3N=C(SCC(=O)NCc3ccc(Cl)cc3)N2C1=O (configuration not stated)	inactive: 1.05%
COc1cccc(NC(=O)CSc2cc(C)[nH]c(=O)n2)c1	inactive: 9.07%
CCN(CC)c1nn2c(=O)c(C(=O)NCc3cccc(OC)c3OC)cnc2s1	inactive: 3.05%
COc1ccc(CNC(=O)c2cnn(-c3ccc(OC)cc3)c2C2CCN(C(=O)OC(C)(C)C)CC2)cc1	inactive: -13.5%
Cc1nc(SCC(=O)Nc2ccccc2Cl)cc(-c2ccccc2)n1	inactive: 13.5%
Cc1c2cnn(-c3ccccc3)c(=O)c2c(C)n1CC(=O)N1CCN(c2cccc(Cl)c2)CC1	inactive: -11.8%
COc1cccc(-c2n[nH]c3c2C(c2cccc(O)c2)N(C)C3=O)c1 (configuration not stated)	inactive: -22.4%
CCS(=O)(=O)N1CC(=O)N(c2cccc(C)c2C)C(C)(C(=O)NC2CCCCCC2)C1 (configuration not stated)	inactive: -4.43%
CCOc1ccc(NC(=O)Cn2cc(C(=O)c3ccc(C)c(C)c3)c(=O)c3cc(F)ccc32)cc1	inactive: 9.12%
Cc1ccc(Cl)cc1NC(=O)Cn1c(=O)n(CCC(=O)N2CCc3ccccc3C2)c(=O)c2ccccc21	inactive: -7.72%
Cc1ccc(CNC(=O)c2ccc3c(c2)N(Cc2cccc(Cl)c2)C(=O)CS3)cc1	inactive: 6.66%
Cc1cc(O)c(C(=O)c2cnc3c(c2)COc2ccccc2-3)cc1Cl	inactive: 16.4%
CCN(c1ccc(C)cc1C)S(=O)(=O)c1nnc(NC(=O)CC(C)C)s1	inactive: -3.47%

SMILES	activity change, negative = cytotoxicity
COc1cc(NC(=O)CSc2nc3nc(C)c(Cc4ccccc4)c(C)n3n2)cc(OC)c1	inactive: 12.3%
CCOc1ccc2nc(N3CCCC(C(=O)NCCc4ccc(SC)cc4)C3)sc2c1 (configuration not stated)	inactive: -10.8%
Cc1cc(C)cc(OCC(=O)Nc2cccc(-c3nc4ccccc4[nH]3)c2)c1	inactive: -6.01%
O=C(Cn1c(=O)n(-c2ccc(F)cc2)c(=O)c2sccc21)Nc1cccc(C(F)(F)F)c1	inactive: -27.9%
COc1ccc(-n2nc3c(c2NC(=O)C(=O)N2CCN(C)CC2)CSC3)cc1	inactive: -2.52%
CCOC(=O)c1cc2c(=O)n3ccccc3nc2n(Cc2ccco2)c1=NC(=O)c1ccccc1OC	inactive: -14.6%
Cc1ccc(NC(=O)C2CCCN(c3nnc(C)c4c(C)n(-c5ccccc5)nc34)C2)cc1Cl (configuration not stated)	inactive: 0.136%
Cc1c2cnn(CC(=O)Nc3ccc(F)cc3F)c(=O)c2c(C)n1Cc1cccc(Cl)c1	inactive: 3.21%
CCC(=O)N1CCc2cc(S(=O)(=O)CCC(=O)NCc3ccc(F)cc3)ccc21	inactive: -2.14%
CC(C)NC(=O)c1cc2c(Cl)nc3ccccc3c2s1	inactive: 6.46%
Cc1ccc(-n2nc3c(=O)n(C(C)C(=O)O)nc(C)c3c2C)cc1 (configuration not stated)	inactive: 19.7%
COc1cccc(CNC(=O)Cn2c(=O)oc3cc(S(=O)(=O)N4CCC(C)CC4)ccc32)c1	inactive: -19.1%
Cc1ccc(-n2nc(CO)c(C(=O)NCCc3ccccc3)n2)cc1C	inactive: 5.13%
CCc1ccc(N2C(=O)CS(=O)(=O)C23C(=O)N(Cc2ccccc2)c2ccccc23)cc1 (configuration not stated)	inactive: -1.75%
COc1cc(-c2noc(-c3nnn(-c4ccc(Cl)cc4)c3C)n2)cc(OC)c1OC	inactive: 3.49%
CCc1cccc(C)c1Nc1c(-c2ccc(N3CCOCC3)cc2)nc2ncccn12	inactive: -2.34%
CC(=O)c1ccc(NC(=O)C2CCCN(S(=O)(=O)c3cn(C)cn3)C2)cc1 (configuration not stated)	inactive: 5.62%
CCOC(=O)C1CCCN(C(=O)c2cc3c(=O)n(C)c4ccccc4c3s2)C1 (configuration not stated)	inactive: 3.04%
Cc1c(CNC(C)c2ccccc2)c(C(=O)O)c(C)n1Cc1c(F)cccc1Cl (configuration not stated)	inactive: -0.576%
COC(=O)c1cc2sccc2n1Cc1ccccc1	inactive: -1.84%
CC1=C(C(=O)Nc2ccccc2Cl)C(c2cccs2)n2ncnc2N1 (configuration not stated)	inactive: -1.77%

SMILES	activity change, negative = cytotoxicity
O=C(CCC1N=C2c3ccccc3N=C(SCc3cccc(F)c3)N2C1=O)NC1CCCCC1 (configuration not stated)	inactive: 5.27%
Cc1ccc(SCC(=O)Nc2cccc(-c3nc4cc(Cl)ccc4o3)c2C)cc1	inactive: 0.727%
CCn1cc2nc(SCc3cccc(OC)c3)n(Cc3ccc(Cl)cc3)c(=O)c2n1	inactive: -6.17%
CCCOc1ccc(CNC(=O)C2CCN(c3nc4ccccc4nc3C(F)(F)F)CC2)cc1	inactive: -2.84%
Cc1cc(NS(=O)(=O)c2ccc(NC(=O)COc3c(C)cc(Br)cc3C)cc2)no1	inactive: -1.46%
O=S(=O)(NCc1ccccc1)c1ccc2[nH]c3c(c2c1)CCCCC3	inactive: -5.2%
COc1cccc(NS(=O)(=O)c2ccc3[nH]cc(C(=O)NC4CCCCC4)c(=O)c3c2)c1	inactive: -7.51%
COc1ccc(Cl)cc1NC(=O)CN1c2ccccc2S(=O)(=O)c2ccccc21	inactive: 6.25%
O=C(CSC1=Nc2ccccc2N=C(c2ccc(F)cc2)C1)Nc1cc(F)ccc1F	inactive: 14%
O=C(NC1CC(=O)N(c2cccc(F)c2)C1)C1CCCCC1 (configuration not stated)	inactive: 8.48%
COc1ccc(N2C(=O)C(CC(=O)Nc3ccc(F)cc3)N(CCC3=CCCCC3)C2=O)cc1 (configuration not stated)	inactive: -10.2%
COc1ccccc1CCNC(=O)Cc1c(C)c2c(cc(C)c3c(C)coc32)oc1=O	inactive: 4.02%
CN(C(=O)Nc1cn(C)c(=O)c2ccccc12)c1ccccc1	inactive: 6.92%
COCCCNC(=O)c1c(NC(=O)c2cc(=O)c3cc(C)c(C)cc3o2)sc2c1CCCC2	inactive: -3.94%
COc1ccccc1CCNC(=O)c1cc2ccccn2n1	inactive: -3.92%
CCCN1C(=O)CN(C2CCCCCC2)C(=O)C1c1ccc(OCC)c(OC)c1 (configuration not stated)	inactive: -1.49%
COc1cccc(CNC(=O)CCC(=O)N2CC3CCCN3c3ccccc32)c1 (configuration not stated)	inactive: 9.2%
Cc1ccccc1NC(=O)CN(C)S(=O)(=O)c1cccc2nsnc12	inactive: 12.8%
O=C(Nc1ccccc1C(=O)O)c1cccc(S(=O)(=O)N2CCCC2)c1	inactive: 3.66%
O=C(NCc1ccc(F)cc1)C1CCN(C(=O)c2cnn(-c3ccccc3)c2-n2cccc2)CC1	inactive: -13.2%
